Source: PubChem BioAssay AID1346428 (National Center for Advancing Translational Sciences (NCATS), 2018)
About 1,200 (2.5%) of roughly 48,000 compounds were called active. About 2% were inconclusive and are not listed.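 Rule for the calls: active = activation of at least 60% and not above a set upper limit (about 1 call in 100 departs from these limits); inconclusive = activation of 40% to 60%, or above that upper limit; inactive = activation under 40%.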 This is one part of the list.

Target: Probable G-protein coupled receptor 32 (Homo sapiens) (UniProt O75388)
Assay: qHTS for Agonists of Human Resolvin D1 Receptor DRV1; note: 0% is about no effect
Conditions: CHO-K1 GPR32 beta-arrestin PathHunter luminescence, 90 min; at 76.9 µM; active compounds read high; zero percent set by DMSO-only wells
Procedure, shortened: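 Cells are plated overnight, treated with compounds in DMSO for 90 minutes at 37 °C, and developed with PathHunter detection reagent for 1 hour before luminescence is read; signal reflects beta-arrestin binding to GPR32 in engineered CHO-K1 cells.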

Chain of UniProt O75388 (O75388 whole entry, looked up): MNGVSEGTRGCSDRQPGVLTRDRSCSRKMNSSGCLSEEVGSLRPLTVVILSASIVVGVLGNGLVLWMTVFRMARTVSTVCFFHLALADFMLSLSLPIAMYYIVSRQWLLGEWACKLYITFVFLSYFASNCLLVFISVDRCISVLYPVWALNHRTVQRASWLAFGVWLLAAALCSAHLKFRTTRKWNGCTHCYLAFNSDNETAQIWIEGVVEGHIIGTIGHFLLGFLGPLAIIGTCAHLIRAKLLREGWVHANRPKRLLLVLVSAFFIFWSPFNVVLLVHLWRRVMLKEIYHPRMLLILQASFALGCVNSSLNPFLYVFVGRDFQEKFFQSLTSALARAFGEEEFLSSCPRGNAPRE

SMILES	activation
COCCNC(=O)c1ccc2c(c1)N(Cc1cc(C)ccc1C)C(=O)c1ccccc1S2(=O)=O	inactive: -12.4%
COC(=O)c1cc(S(=O)(=O)NCC2CCN(Cc3ccc(F)cc3)CC2)c[nH]1	inactive: -14.5%
COCCNC(=O)CSc1nc2cc3c(cc2c(=O)n1CCCC(=O)NCc1ccc(OC)cc1)OCO3	inactive: -10.2%
CCOc1ccc(Cn2c(-c3ccc(OCC)c(OC)c3)nc3ccccc32)cc1OC	inactive: -0.688%
COc1ccc(S(=O)(=O)Nc2nnc(CC(C)C)s2)cc1	inactive: 6.79%
Cc1cccc(NC(=O)c2cc(-c3ccc4c(c3)OCCO4)on2)c1	inactive: 20.8%
Cc1ccc(NC(=O)CSc2nc3ccccc3nc2Cc2ccccc2)c(C)c1	inactive: -10.2%
Cc1cc(NCc2ccccc2Cl)n2cnnc2n1	inactive: 9.67%
CN(C)c1ccc(CNC(=O)C2CCN(S(=O)(=O)c3ccc4c(ccn4C)c3)CC2)cc1	inactive: -2.66%
Cc1ccc(C)c(Nc2nn3c(=O)c4ccc(C(=O)NCCc5ccccc5)cc4nc3s2)c1	active: 74.1%
CCOC(=O)c1ccc(NC(=O)C(CC)Sc2nc3ncccc3o2)cc1 (stereo not given)	inactive: -34%
Cc1ccc(N2CCN(C(=O)c3c4c(nc5ccccc35)C(=O)N(C3CCCCC3)C4)CC2)c(C)c1	inactive: -5.72%
Cc1ccc(C)c(N2CCN(C(=O)Cn3c(-c4cccs4)cc4ccccc43)CC2)c1	inactive: -13%
CN(C)c1ccc2nc3ccc(=[N+](C)C)cc-3sc2c1	inactive: -37.2%
CCN(C(=O)Cn1cc(S(=O)(=O)Cc2ccccc2Cl)c2ccccc21)c1ccccc1	inactive: -15.9%
COCCCn1c(SCC(=O)NCc2ccccc2)nc2c(sc3ccccc32)c1=O	inactive: 5.85%
COc1ccc(C(=O)Nc2nc3c(s2)CCc2cc(OC)ccc2-3)cc1	inactive: 15.8%
COc1ccc(C2C(=O)c3ccccc3C2=O)cc1	inactive: 9.68%
Cc1ccc(-n2ncc3c(N4CCN(CCO)CC4)ncnc32)cc1Cl	active: 65.1%
CCCCNc1nc(Oc2ccc(OCC(N)=O)nn2)nc(N2CCOCC2)n1	inactive: -14%
Cc1ccc(-n2c(SCC(=O)Nc3ccc4c(c3)OCO4)nc3c([nH]c4ccccc43)c2=O)cc1	inactive: -37%
Cc1ccc(-c2cc(C(=O)NCc3cnn(C)c3)c3cc(Br)ccc3n2)cc1	inactive: 4.38%
CCOc1cc(C2c3c(oc4ccc(F)cc4c3=O)C(=O)N2Cc2ccco2)ccc1O (stereo not given)	inactive: -7.07%
Cc1cccc(C(=O)N2CCc3cc(CNC(=O)Cc4ccc(F)cc4)ccc32)c1	inactive: -4.39%
Cc1cc(Br)ccc1NC(=O)c1cn(C2CCCC2)c(=O)c2c1c1ccccc1n2C	inactive: 3.43%
Cc1ccc(Cc2nc3ccccc3nc2SCC(=O)NCc2ccc(F)cc2)cc1	inactive: -22.6%
CCc1ccccc1N(C)C(=O)c1cnc(N2CCOCC2)c2ccccc12	inactive: -15.6%
CCC(=O)C1=C(c2cccc([N+](=O)[O-])c2)N(C(=O)CC)n2c(nnc2-c2ccccc2)S1	inactive: -12.7%

SMILES	activation
COc1ccc(CCNc2ncnc3c2c(-c2ccccc2)cn3-c2ccc(F)cc2)cc1OC	inactive: -43.4%
CCOc1ccc(C2c3[nH]c4ccccc4c3CCN2C(=O)Cc2cccc(OCC)c2OCC)cc1 (stereo not given)	inactive: -27.4%
Cc1ccccc1Cn1nnc2c(=O)[nH]c(C3CCN(C(=O)c4ccccc4)CC3)nc21	inactive: -19%
CCOC(=O)c1cnc2ccc(C(=O)OC)cc2c1Nc1ccccc1CC	inactive: -0.35%
COc1ccc(-c2nc3sc(CCNC(=O)c4cccc(C(F)(F)F)c4)c(C)n3n2)cc1	inactive: 26.6%
Cc1cc(C)cc(-n2ccnc2SCC(=O)Nc2nc3ccccc3s2)c1	inactive: -2.89%
CCC(C(=O)NCc1ccccc1OC)n1nc(C)n2c(cc3sccc32)c1=O (stereo not given)	inactive: -1.35%
CCOC(=O)c1c(S(=O)(=O)NCC(=O)Nc2ccc(C)c(Cl)c2)c(C)n(C)c1C	inactive: -10.8%
CSc1ncc(C(=O)NCc2ccccc2)c(-c2ccccc2)n1	inactive: -16.8%
CC(C)Oc1ccc(CNC(=O)c2ccc(NC(=O)N3CCSc4ncccc43)cc2)cc1	inactive: 1.81%
COc1ccc(NC(=O)C2CCCN2S(=O)(=O)c2cccc3cccnc23)cc1OC (stereo not given)	inactive: -8%
CC(C)(C)n1cnc2cc(NCc3ccccc3Cl)ccc21	inactive: -74%
COc1ccc(C2=NS(=O)(=O)N(C)C(C(=O)NCc3ccccc3)=C2)cc1OC	inactive: -15.8%
COc1ccc(-c2cc(C(=O)Nc3ccn(Cc4ccc(C)cc4)n3)no2)cc1OC	active: 77.7%
CCc1ccc(NC(=O)C(=O)NCC(c2ccc3c(c2)OCO3)N2CCOCC2)cc1 (stereo not given)	inactive: -1.79%
Cc1ccc(S(=O)(=O)c2nc(-c3ccccc3Cl)oc2N2CCCCCC2)cc1	inactive: -4.36%
Cc1ccc(Cl)c(NC(=O)Nc2csc3c2CCCC3)c1	inactive: -5.95%
CCS(=O)(=O)N1CCC(n2c(C)nc3cccnc32)CC1	inactive: -0.136%
Cc1ncc([N+](=O)[O-])n1CC(O)CCl (stereo not given)	inactive: -2.73%
CN1C(=O)c2ccccc2Sc2ccc(NC(=O)COc3ccccc3)cc21	inactive: -8.63%
COc1cc2oc(=O)c(CC(=O)N3CCCCC3)c(C)c2cc1OC	inactive: 15.6%
CCOC(=O)c1nc(N2CCN(c3ccc(F)cc3)CC2)c2c(C)noc2n1	inactive: -12.3%
CCCC(=O)N(c1ccc2oc(C)c(C(C)=O)c2c1)S(=O)(=O)c1ccc(C)cc1	inactive: -3.81%
COc1ccc(C(=O)/C=C/c2cn(CC(O)CN(CC(C)C)CC(C)C)c3ccccc23)cc1 (stereo not given)	inactive: -3.48%
CCn1c(=O)n(-c2ccc(F)c(Cl)c2)c(=O)c2c3c(sc21)CN(C(C)=O)CC3	inactive: -5.62%
Cc1ccc(C)c(CSc2cn(CC(=O)N3CCCCCC3)c3ccccc23)c1	inactive: -8.88%
COc1cccc(N2C(=O)CSC23C(=O)N(Cc2ccccc2)c2ccccc23)c1 (stereo not given)	inactive: -31.7%
